Test results from PMC4931317, “UtpA and UtpB chaperone nascent pre-ribosomal RNA and U3 snoRNA to initiate eukaryotic ribosome assembly” (Nature Communications, 2016).
No constants are given. Whether binding was seen depends on the method and setting. For part of these data: In cells and extracts the contact can be indirect. Some entries that bind do so weakly or less than the wild type. For part of these data: Tags and fused reporters may be left off the sequences shown.

Legend:
[1] = biological target: T1, His14-3C-Utp21 (recombinant) (S. cerevisiae) (UniProt Q06078); experiment: pull-down; Utp6/Utp18/Utp21/Utp1 co-expressed in E. coli; tandem affinity purification via His14-3C-Utp21 and mCherry-3C-Utp6; 3C protease elution; SDS-PAGE
T1 sequence: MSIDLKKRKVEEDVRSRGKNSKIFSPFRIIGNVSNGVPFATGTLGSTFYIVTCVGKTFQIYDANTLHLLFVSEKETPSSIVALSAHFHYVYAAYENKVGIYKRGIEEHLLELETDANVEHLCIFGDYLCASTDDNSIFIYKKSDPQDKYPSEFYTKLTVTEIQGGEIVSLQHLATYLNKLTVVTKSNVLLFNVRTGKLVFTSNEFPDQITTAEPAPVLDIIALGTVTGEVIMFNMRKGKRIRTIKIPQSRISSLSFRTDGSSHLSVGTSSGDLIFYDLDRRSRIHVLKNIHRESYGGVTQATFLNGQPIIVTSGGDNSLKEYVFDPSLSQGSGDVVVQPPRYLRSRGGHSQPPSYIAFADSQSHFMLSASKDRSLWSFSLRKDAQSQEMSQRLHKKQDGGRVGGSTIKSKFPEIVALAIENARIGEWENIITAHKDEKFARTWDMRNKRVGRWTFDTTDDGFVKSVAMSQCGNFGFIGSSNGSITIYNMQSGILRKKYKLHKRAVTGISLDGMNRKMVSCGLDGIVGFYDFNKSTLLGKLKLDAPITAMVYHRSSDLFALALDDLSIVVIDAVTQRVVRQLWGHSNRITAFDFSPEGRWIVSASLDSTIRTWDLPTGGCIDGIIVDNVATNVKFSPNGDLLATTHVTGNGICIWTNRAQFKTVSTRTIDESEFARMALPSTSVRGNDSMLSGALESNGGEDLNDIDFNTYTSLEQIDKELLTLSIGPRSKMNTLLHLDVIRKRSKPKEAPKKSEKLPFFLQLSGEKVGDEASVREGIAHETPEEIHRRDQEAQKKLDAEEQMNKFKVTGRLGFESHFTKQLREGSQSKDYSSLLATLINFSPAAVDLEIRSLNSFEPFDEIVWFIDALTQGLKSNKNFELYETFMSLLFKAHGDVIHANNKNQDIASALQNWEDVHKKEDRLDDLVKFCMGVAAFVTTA

[2] = biological target: T2, StrepII-Sumo-Utp21 (recombinant) (S. cerevisiae) (UniProt Q06078); experiment: cross-linking; DSS (0.2, 0.4 and 0.8 mM, H12/D12) cross-linking of SEC-purified recombinant UtpBΔUtp6ΔUtp18, 0.2 mg/ml, room temperature, 30 min, 50 mM HEPES-NaOH pH 7.7, 300 mM NaCl, 1 mM EDTA; cross-linked peptides found by mass spectrometry (pLink); both purified
T2 sequence: T1 sequence

[3] = biological target: T3, His14-3C-Utp12 (recombinant) (S. cerevisiae) (UniProt Q12220); experiment: SEC; Utp12/Utp13/StrepII-Sumo-Utp21/Utp1 co-expressed in E. coli and purified by the His14 tag on Utp12; main peak fraction of the size-exclusion run; 50 mM HEPES-NaOH pH 7.6, 300 mM NaCl; both purified
T3 sequence: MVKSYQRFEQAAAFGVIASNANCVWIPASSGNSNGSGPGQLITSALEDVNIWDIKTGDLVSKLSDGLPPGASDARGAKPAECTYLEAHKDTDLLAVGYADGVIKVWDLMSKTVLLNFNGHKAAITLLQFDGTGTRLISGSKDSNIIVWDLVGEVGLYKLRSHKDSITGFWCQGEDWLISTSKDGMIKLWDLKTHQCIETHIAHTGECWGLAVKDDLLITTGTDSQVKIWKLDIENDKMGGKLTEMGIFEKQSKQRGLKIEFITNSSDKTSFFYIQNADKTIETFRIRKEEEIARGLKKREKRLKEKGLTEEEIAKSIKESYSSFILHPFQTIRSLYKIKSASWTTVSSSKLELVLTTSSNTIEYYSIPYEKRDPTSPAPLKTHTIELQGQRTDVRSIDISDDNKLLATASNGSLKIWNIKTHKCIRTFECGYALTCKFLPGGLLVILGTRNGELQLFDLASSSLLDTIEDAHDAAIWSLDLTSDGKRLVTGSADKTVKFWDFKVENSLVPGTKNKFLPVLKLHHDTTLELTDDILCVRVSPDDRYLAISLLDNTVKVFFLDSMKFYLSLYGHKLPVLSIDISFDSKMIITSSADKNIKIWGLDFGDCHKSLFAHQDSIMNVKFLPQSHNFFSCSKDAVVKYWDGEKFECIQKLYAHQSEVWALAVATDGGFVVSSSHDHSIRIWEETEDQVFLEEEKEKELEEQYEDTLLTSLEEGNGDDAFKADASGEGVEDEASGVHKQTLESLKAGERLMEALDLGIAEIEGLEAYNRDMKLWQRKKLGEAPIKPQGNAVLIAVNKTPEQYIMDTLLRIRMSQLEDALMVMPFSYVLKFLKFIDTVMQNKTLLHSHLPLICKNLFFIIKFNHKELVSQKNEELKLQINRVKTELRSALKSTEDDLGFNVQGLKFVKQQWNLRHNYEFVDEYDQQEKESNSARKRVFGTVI

[4] = biological target: T3, His14-3C-Utp12 (recombinant) (S. cerevisiae); experiment: cross-linking; DSS (0.2, 0.4 and 0.8 mM, H12/D12) cross-linking of SEC-purified recombinant UtpBΔUtp6ΔUtp18, 0.2 mg/ml, room temperature, 30 min, 50 mM HEPES-NaOH pH 7.7, 300 mM NaCl, 1 mM EDTA; cross-linked peptides found by mass spectrometry (pLink); both purified
[5] = biological target: T4, Utp13 (recombinant) (S. cerevisiae) (UniProt Q05946); experiment: as above
T4 sequence: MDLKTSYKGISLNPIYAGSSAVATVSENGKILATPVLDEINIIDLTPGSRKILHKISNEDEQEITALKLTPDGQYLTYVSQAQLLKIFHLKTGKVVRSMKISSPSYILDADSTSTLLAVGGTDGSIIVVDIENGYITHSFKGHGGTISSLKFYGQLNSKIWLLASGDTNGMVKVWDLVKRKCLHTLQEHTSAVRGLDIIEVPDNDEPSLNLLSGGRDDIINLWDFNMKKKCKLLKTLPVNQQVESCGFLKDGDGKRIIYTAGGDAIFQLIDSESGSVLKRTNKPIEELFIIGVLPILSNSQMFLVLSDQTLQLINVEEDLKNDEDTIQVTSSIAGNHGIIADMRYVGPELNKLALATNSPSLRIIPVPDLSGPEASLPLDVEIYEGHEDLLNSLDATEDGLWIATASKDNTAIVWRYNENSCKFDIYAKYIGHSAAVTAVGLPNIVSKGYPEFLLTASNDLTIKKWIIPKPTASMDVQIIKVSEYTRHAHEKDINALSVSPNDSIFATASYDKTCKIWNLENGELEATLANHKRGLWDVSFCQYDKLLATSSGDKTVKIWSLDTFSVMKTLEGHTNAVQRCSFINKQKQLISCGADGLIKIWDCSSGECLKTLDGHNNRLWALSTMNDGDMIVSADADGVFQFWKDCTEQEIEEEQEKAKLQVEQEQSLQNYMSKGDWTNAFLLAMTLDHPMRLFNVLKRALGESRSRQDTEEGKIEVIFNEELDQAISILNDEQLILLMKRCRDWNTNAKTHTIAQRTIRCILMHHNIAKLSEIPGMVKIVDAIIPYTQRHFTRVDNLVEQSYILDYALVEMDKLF

Measured: binding

B1: Utp1 (recombinant) (protein, UniProt P25635 1-923)
chain: MKSDFKFSNLLGTVYRQGNITFSDDGKQLLSPVGNRVSVFDLINNKSFTFEYEHRKNIAAIDLNKQGTLLISIDEDGRAILVNFKARNVLHHFNFKEKCSAVKFSPDGRLFALASGRFLQIWKTPDVNKDRQFAPFVRHRVHAGHFQDITSLTWSQDSRFILTTSKDLSAKIWSVDSEEKNLAATTFNGHRDYVMGAFFSHDQEKIYTVSKDGAVFVWEFTKRPSDDDDNESEDDDKQEEVDISKYSWRITKKHFFYANQAKVKCVTFHPATRLLAVGFTSGEFRLYDLPDFTLIQQLSMGQNPVNTVSVNQTGEWLAFGSSKLGQLLVYEWQSESYILKQQGHFDSTNSLAYSPDGSRVVTASEDGKIKVWDITSGFCLATFEEHTSSVTAVQFAKRGQVMFSSSLDGTVRAWDLIRYRNFRTFTGTERIQFNCLAVDPSGEVVCAGSLDNFDIHVWSVQTGQLLDALSGHEGPVSCLSFSQENSVLASASWDKTIRIWSIFGRSQQVEPIEVYSDVLALSMRPDGKEVAVSTLKGQISIFNIEDAKQVGNIDCRKDIISGRFNQDRFTAKNSERSKFFTTIHYSFDGMAIVAGGNNNSICLYDVPNEVLLKRFIVSRNMALNGTLEFLNSKKMTEAGSLDLIDDAGENSDLEDRIDNSLPGSQRGGDLSTRKMRPEVRVTSVQFSPTANAFAAASTEGLLIYSTNDTILFDPFDLDVDVTPHSTVEALREKQFLNALVMAFRLNEEYLINKVYEAIPIKEIPLVASNIPAIYLPRILKFIGDFAIESQHIEFNLIWIKALLSASGGYINEHKYLFSTAMRSIQRFIVRVAKEVVNTTTDNKYTYRFLVSTDGSMEDGAADDDEVLLKDDADEDNEENEENDVVMESDDEEGWIGFNGKDNKLPLSNENDSSDEEENEKELP
binds: [1] | [2] | [3]

B2: StrepII-Sumo-Utp21 (recombinant) (protein, UniProt Q06078 1-939)
chain: T1 sequence
binds: [4] | [5] | [3]
